These are yes or no findings as the source states them, for the method shown. Binding seen in cells or lysates may run through a third protein. Some binding calls cover weakened binding; strength is not graded here.
Biological target: GST-TBC1D23 (559 to 684) (mouse) (UniProt Q8K0F1)
Experiment: pull-down; GST-tagged bait from bacterial lysate on glutathione-Sepharose beads (washed, once with 500 mM NaCl), 2 h at 4°C with clarified bacterial lysate containing the prey; 50 mM tris pH 7.4, 150 mM NaCl, 1 mM EDTA, 5 mM 2-mercaptoethanol, 1% Triton X-100; Coomassie stain or anti-His6 …; only the target purified

Protein sequences, listed by entry. Tags and fused reporters are not part of them. Residues count along the entry.
UniProt Q8K0F1, residues 559-684: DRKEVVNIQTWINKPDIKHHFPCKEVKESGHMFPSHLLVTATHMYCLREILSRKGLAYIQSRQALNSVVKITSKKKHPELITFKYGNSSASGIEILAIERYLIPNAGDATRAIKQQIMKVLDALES
UniProt Q96ET8, residues 1-34: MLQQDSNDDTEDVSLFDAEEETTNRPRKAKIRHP

His6-MBP-TVP23C (1 to 34) (from UniProt Q96ET8 1-34) (domain or fragment)
binding: binds

From article PMC11093223, “Cargo selective vesicle tethering: The structural basis for binding of specific cargo proteins by the Golgi tether component TBC1D23” (Science Advances, 2024)
